Measured values published in the supplement of paper PMC8728848.
The other results are listed elsewhere or left out.

Assays:
Assay in all cases: glycan array binding signal (z-score within array); higher = stronger binding
Conditions in all cases: glycan notation: IUPAC condensed, linker removed
Gal(b1-4)GlcNAc6P = target: Gal(b1-4)GlcNAc6P
Outline: (§1)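 The Consortium for Functional Glycomics database supplied 3228 glycan arrays, of which those lacking an available protein sequence were dropped. The binding signal, a within-array Z-score, was averaged across arrays of the same protein sequence and across linkers. Negative scores can be read as non-binding.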

Gal(b1-6)Gal = target: Gal(b1-6)Gal
Outline: as §1

Gal3S(b1-3)GalNAc = target: Gal3S(b1-3)GalNAc
Outline: as §1

Gal3S(b1-3)GlcNAc = target: Gal3S(b1-3)GlcNAc
Outline: as §1

[1] = target: Gal3S(b1-3)[Fuc(a1-4)]GlcNAc
Outline: as §1

Gal3S(b1-4)Glc = target: Gal3S(b1-4)Glc
Outline: as §1

Gal3S(b1-4)Glc6S = target: Gal3S(b1-4)Glc6S
Outline: as §1

Gal3S(b1-4)GlcNAc = target: Gal3S(b1-4)GlcNAc
Outline: as §1

Gal3S(b1-4)GlcNAc6S = target: Gal3S(b1-4)GlcNAc6S
Outline: as §1

[2] = target: Gal3S(b1-4)[Fuc(a1-3)]Glc
Outline: as §1

[3] = target: Gal3S(b1-4)[Fuc(a1-3)]Glc6S
Outline: as §1

Gal3S4S(b1-4)GlcNAc = target: Gal3S4S(b1-4)GlcNAc
Outline: as §1

Gal3S6S(b1-4)GlcNAc = target: Gal3S6S(b1-4)GlcNAc
Outline: as §1

Gal3S6S(b1-4)GlcNAc6S = target: Gal3S6S(b1-4)GlcNAc6S
Outline: as §1

Gal4S(b1-4)GlcNAc = target: Gal4S(b1-4)GlcNAc
Outline: as §1

Gal4S6S(b1-4)GlcNAc = target: Gal4S6S(b1-4)GlcNAc
Outline: as §1

Gal6P(b1-4)GlcNAc = target: Gal6P(b1-4)GlcNAc
Outline: as §1

Gal6S(b1-3)GlcNAc = target: Gal6S(b1-3)GlcNAc
Outline: as §1

Gal6S(b1-3)GlcNAc6S = target: Gal6S(b1-3)GlcNAc6S
Outline: as §1

Gal6S(b1-4)Glc = target: Gal6S(b1-4)Glc
Outline: as §1

Gal6S(b1-4)Glc6S = target: Gal6S(b1-4)Glc6S
Outline: as §1

Gal6S(b1-4)GlcNAc = target: Gal6S(b1-4)GlcNAc
Outline: as §1

Gal6S(b1-4)GlcNAc6S = target: Gal6S(b1-4)GlcNAc6S
Outline: as §1

GalNAc(a1-3)Gal = target: GalNAc(a1-3)Gal
Outline: as §1

GalNAc(a1-3)GalNAc = target: GalNAc(a1-3)GalNAc
Outline: as §1

[4] = target: GalNAc(a1-3)GalNAc(b1-3)Gal(a1-4)Gal(b1-4)Glc
Outline: as §1

[5] = target: GalNAc(a1-3)GalNAc(b1-3)Gal(a1-4)Gal(b1-4)GlcNAc
Outline: as §1

GalNAc(b1-3)Gal = target: GalNAc(b1-3)Gal
Outline: as §1

[6] = target: GalNAc(b1-3)Gal(a1-4)Gal(b1-4)GlcNAc
Outline: as §1

[7] = target: GalNAc(b1-3)Gal(a1-4)Gal(b1-4)GlcNAc(b1-3)Gal(b1-4)Glc
Outline: as §1

[8] = target: GalNAc(b1-3)Gal(a1-6)Gal(b1-4)Glc
Outline: as §1

GalNAc(b1-3)GalNAc = target: GalNAc(b1-3)GalNAc
Outline: as §1

GalNAc(b1-4)Gal(b1-4)Glc = target: GalNAc(b1-4)Gal(b1-4)Glc
Outline: as §1

GalNAc(b1-4)GlcNAc = target: GalNAc(b1-4)GlcNAc
Outline: as §1

[9] = target: GalNAc(b1-4)GlcNAc(b1-2)Man(a1-3)[GalNAc(b1-4)GlcNAc(b1-2)Man(a1-6)]Man(b1-4)GlcNAc(b1-4)GlcNAc
Outline: as §1

GalNAc(b1-4)GlcNAc6S = target: GalNAc(b1-4)GlcNAc6S
Outline: as §1

GalNAc(b1-6)GalNAc = target: GalNAc(b1-6)GalNAc
Outline: as §1

GalNAc3S(b1-4)GlcNAc = target: GalNAc3S(b1-4)GlcNAc
Outline: as §1

B1: Gal 8 (Homo sapiens), O00214_1 (protein)
chain: MMLSLNNLQNIIYNPVIPFVGTIPDQLDPGTLIVIRGHVPSDADRFQVDLQNGSSMKPRADVAFHFNPRFKRAGCIVCNTLINEKWGREEITYDTPFKREKSFEIVIMVLKDKFQVAVNGKHTLLYGHRIGPEKIDTLGIYGKVNIHSIGFSFSSDLQSTQASSLELTEISRENVPKSGTPQLRLPFAARLNTPMGPGRTVVVKGEVNANAKSFNVDLLAGKSKDIALHLNPRLNIKAFVRNSFLQESWGEEERNITSFPFSPGMYFEMIIYCDVREFKVAVNGVHSLEYKHRFKELSSIDTLEINGDIHLLEVRSW
- glycan array binding signal (z-score) (Gal(b1-4)GlcNAc6P): -0.233
- glycan array binding signal (z-score) (Gal(b1-6)Gal): -0.241
- glycan array binding signal (z-score) (Gal3S(b1-3)GalNAc): -0.043
- glycan array binding signal (z-score) (Gal3S(b1-3)GlcNAc): 0.085
- glycan array binding signal (z-score) [1]: -0.222
- glycan array binding signal (z-score) (Gal3S(b1-4)Glc): 0.022
- glycan array binding signal (z-score) (Gal3S(b1-4)Glc6S): 1.87
- glycan array binding signal (z-score) (Gal3S(b1-4)GlcNAc): -0.23
- glycan array binding signal (z-score) (Gal3S(b1-4)GlcNAc6S): -0.173
- glycan array binding signal (z-score) [2]: -0.224
- glycan array binding signal (z-score) [3]: -0.138
- glycan array binding signal (z-score) (Gal3S4S(b1-4)GlcNAc): -0.119
- glycan array binding signal (z-score) (Gal3S6S(b1-4)GlcNAc): -0.243
- glycan array binding signal (z-score) (Gal3S6S(b1-4)GlcNAc6S): -0.201
- glycan array binding signal (z-score) (Gal4S(b1-4)GlcNAc): -0.21
- glycan array binding signal (z-score) (Gal4S6S(b1-4)GlcNAc): -0.24
- glycan array binding signal (z-score) (Gal6P(b1-4)GlcNAc): -0.201
- glycan array binding signal (z-score) (Gal6S(b1-3)GlcNAc): -0.234
- glycan array binding signal (z-score) (Gal6S(b1-3)GlcNAc6S): -0.24
- glycan array binding signal (z-score) (Gal6S(b1-4)Glc): -0.019
- glycan array binding signal (z-score) (Gal6S(b1-4)Glc6S): -0.094
- glycan array binding signal (z-score) (Gal6S(b1-4)GlcNAc): -0.172
- glycan array binding signal (z-score) (Gal6S(b1-4)GlcNAc6S): -0.226
- glycan array binding signal (z-score) (GalNAc(a1-3)Gal): 0.204
- glycan array binding signal (z-score) (GalNAc(a1-3)GalNAc): -0.221
- glycan array binding signal (z-score) [4]: 0.604
- glycan array binding signal (z-score) [5]: 0.738
- glycan array binding signal (z-score) (GalNAc(b1-3)Gal): -0.179
- glycan array binding signal (z-score) [6]: -0.21
- glycan array binding signal (z-score) [7]: 1.41
- glycan array binding signal (z-score) [8]: -0.188
- glycan array binding signal (z-score) (GalNAc(b1-3)GalNAc): -0.176
- glycan array binding signal (z-score) (GalNAc(b1-4)Gal(b1-4)Glc): -0.201
- glycan array binding signal (z-score) (GalNAc(b1-4)GlcNAc): -0.171
- glycan array binding signal (z-score) [9]: -0.517
- glycan array binding signal (z-score) (GalNAc(b1-4)GlcNAc6S): -0.223
- glycan array binding signal (z-score) (GalNAc(b1-6)GalNAc): -0.257
- glycan array binding signal (z-score) (GalNAc3S(b1-4)GlcNAc): -0.209
